Reference: article PMC12820563
This is one part of the list. The list includes weakly bound sequences.

biological target: T1, MBP-FoxP3dN (UniProt Q99JB6); experiment: PD-seq (MBP pull-down with sequencing); conditions: 20 mM Tris-HCl pH 7.5, 100 mM NaCl, 1.5 mM MgCl2, 0.4 uM protein, 0.1 uM dsDNA library, 30 min, room temperature, amylose pull-down; high values mean tight binding; double strand, one strand shown
T1 sequence: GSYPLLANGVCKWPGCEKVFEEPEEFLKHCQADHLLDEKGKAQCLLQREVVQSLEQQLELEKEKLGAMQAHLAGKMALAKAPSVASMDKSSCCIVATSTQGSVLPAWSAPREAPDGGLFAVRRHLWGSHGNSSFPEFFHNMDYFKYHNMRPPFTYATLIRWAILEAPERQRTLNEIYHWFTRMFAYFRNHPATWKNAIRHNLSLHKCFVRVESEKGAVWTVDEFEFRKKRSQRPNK

| Sequence | binding signal (RPM ratio (pull-down/input)) |
| --- | --- |
| GATGATTGTTCTCCCAGCTGATGAATTCAGGTCATCGAGTAAACAAATTTTCCTAATCTTTCTGTTCAAGCGCCATCTAC | 0.504 |
| GATGATTGTTCTCCCAGCTGATGAATTGCCATACTCGAGTAAACAAATTTTCCTAATCTTTCTGTTCAAGCGCCATCTAC | 0.943 |
| GATGATTGTTCTCCCAGCTGATGAATTTAACTCGTCGAGTAAACAAATTTTCCTAATCTTTCTGTTCAAGCGCCATCTAC | 0.387 |
| GATGATTGTTCTCCCAGCTGATGAATTCAGATTATCGAGTAAACAAATTTTCCTAATCTTTCTGTTCAAGCGCCATCTAC | 0.784 |
| GATGATTGTTCTCCCAGCTGATGAATTCCTTTTTTCGAGTAAACAAATTTTCCTAATCTTTCTGTTCAAGCGCCATCTAC | 0.35 |
| GATGATTGTTCTCCCAGCTGATGAATTGACGAATTCGAGTAAACAAATTTTCCTAATCTTTCTGTTCAAGCGCCATCTAC | 0.617 |
| GATGATTGTTCTCCCAGCTGATGAATTAATTCGATCGAGTAAACAAATTTTCCTAATCTTTCTGTTCAAGCGCCATCTAC | 0.244 |
| GATGATTGTTCTCCCAGCTGATGAATTTATTTATTCGAGTAAACAAATTTTCCTAATCTTTCTGTTCAAGCGCCATCTAC | 5.86 |
| GATGATTGTTCTCCCAGCTGATGAATTAAGACCATCGAGTAAACAAATTTTCCTAATCTTTCTGTTCAAGCGCCATCTAC | 0.484 |
| GATGATTGTTCTCCCAGCTGATGAATTGGCAATTTCGAGTAAACAAATTTTCCTAATCTTTCTGTTCAAGCGCCATCTAC | 1.27 |
| GATGATTGTTCTCCCAGCTGATGAATTATATGTTTCGAGTAAACAAATTTTCCTAATCTTTCTGTTCAAGCGCCATCTAC | 2.01 |
| GATGATTGTTCTCCCAGCTGATGAATTTGGAAATTCGAGTAAACAAATTTTCCTAATCTTTCTGTTCAAGCGCCATCTAC | 0.539 |
| GATGATTGTTCTCCCAGCTGATGAATTAATTCCGTCGAGTAAACAAATTTTCCTAATCTTTCTGTTCAAGCGCCATCTAC | 0.288 |
| GATGATTGTTCTCCCAGCTGATGAATTTCTTTCGTCGAGTAAACAAATTTTCCTAATCTTTCTGTTCAAGCGCCATCTAC | 0.43 |
| GATGATTGTTCTCCCAGCTGATGAATTTACGTGATCGAGTAAACAAATTTTCCTAATCTTTCTGTTCAAGCGCCATCTAC | 0.645 |
| GATGATTGTTCTCCCAGCTGATGAATTAGCTGGGTCGAGTAAACAAATTTTCCTAATCTTTCTGTTCAAGCGCCATCTAC | 0.536 |
| GATGATTGTTCTCCCAGCTGATGAATTTCTCTATTCGAGTAAACAAATTTTCCTAATCTTTCTGTTCAAGCGCCATCTAC | 0.288 |
| GATGATTGTTCTCCCAGCTGATGAATTAAACTATTCGAGTAAACAAATTTTCCTAATCTTTCTGTTCAAGCGCCATCTAC | 0.397 |
| GATGATTGTTCTCCCAGCTGATGAATTACAGGTATCGAGTAAACAAATTTTCCTAATCTTTCTGTTCAAGCGCCATCTAC | 0.685 |
| GATGATTGTTCTCCCAGCTGATGAATTATACTTTTCGAGTAAACAAATTTTCCTAATCTTTCTGTTCAAGCGCCATCTAC | 0.642 |

| Sequence | binding signal (RPM ratio (pull-down/input)) |
| --- | --- |
| GATGATTGTTCTCCCAGCTGATGAATTCAGTCCGTCGAGTAAACAAATTTTCCTAATCTTTCTGTTCAAGCGCCATCTAC | 0.297 |
| GATGATTGTTCTCCCAGCTGATGAATTGCGGCCATCGAGTAAACAAATTTTCCTAATCTTTCTGTTCAAGCGCCATCTAC | 1.87 |
| GATGATTGTTCTCCCAGCTGATGAATTGGATCCATCGAGTAAACAAATTTTCCTAATCTTTCTGTTCAAGCGCCATCTAC | 0.271 |
| GATGATTGTTCTCCCAGCTGATGAATTAGAAAATTCGAGTAAACAAATTTTCCTAATCTTTCTGTTCAAGCGCCATCTAC | 0.201 |
| GATGATTGTTCTCCCAGCTGATGAATTGATGAGGTCGAGTAAACAAATTTTCCTAATCTTTCTGTTCAAGCGCCATCTAC | 0.293 |
| GATGATTGTTCTCCCAGCTGATGAATTCGATGATTCGAGTAAACAAATTTTCCTAATCTTTCTGTTCAAGCGCCATCTAC | 1.19 |
| GATGATTGTTCTCCCAGCTGATGAATTGAATCTATCGAGTAAACAAATTTTCCTAATCTTTCTGTTCAAGCGCCATCTAC | 0.484 |
| GATGATTGTTCTCCCAGCTGATGAATTCAACGTGTCGAGTAAACAAATTTTCCTAATCTTTCTGTTCAAGCGCCATCTAC | 0.613 |
| GATGATTGTTCTCCCAGCTGATGAATTGTCACCTTCGAGTAAACAAATTTTCCTAATCTTTCTGTTCAAGCGCCATCTAC | 0.583 |
| GATGATTGTTCTCCCAGCTGATGAATTCGATGGATCGAGTAAACAAATTTTCCTAATCTTTCTGTTCAAGCGCCATCTAC | 0.402 |
| GATGATTGTTCTCCCAGCTGATGAATTTATACGTTCGAGTAAACAAATTTTCCTAATCTTTCTGTTCAAGCGCCATCTAC | 0.886 |
| GATGATTGTTCTCCCAGCTGATGAATTGCTCGCATCGAGTAAACAAATTTTCCTAATCTTTCTGTTCAAGCGCCATCTAC | 1.17 |
| GATGATTGTTCTCCCAGCTGATGAATTCAGTAACTCGAGTAAACAAATTTTCCTAATCTTTCTGTTCAAGCGCCATCTAC | 1.34 |
| GATGATTGTTCTCCCAGCTGATGAATTTTCCAACTCGAGTAAACAAATTTTCCTAATCTTTCTGTTCAAGCGCCATCTAC | 0.228 |
| GATGATTGTTCTCCCAGCTGATGAATTCTATGAATCGAGTAAACAAATTTTCCTAATCTTTCTGTTCAAGCGCCATCTAC | 0.343 |
| GATGATTGTTCTCCCAGCTGATGAATTTGCTGACTCGAGTAAACAAATTTTCCTAATCTTTCTGTTCAAGCGCCATCTAC | 5.1 |
| GATGATTGTTCTCCCAGCTGATGAATTGCTCCATTCGAGTAAACAAATTTTCCTAATCTTTCTGTTCAAGCGCCATCTAC | 0.543 |
| GATGATTGTTCTCCCAGCTGATGAATTTCATCGCTCGAGTAAACAAATTTTCCTAATCTTTCTGTTCAAGCGCCATCTAC | 0.368 |
| GATGATTGTTCTCCCAGCTGATGAATTCCTGGTATCGAGTAAACAAATTTTCCTAATCTTTCTGTTCAAGCGCCATCTAC | 0.355 |
| GATGATTGTTCTCCCAGCTGATGAATTCACATCATCGAGTAAACAAATTTTCCTAATCTTTCTGTTCAAGCGCCATCTAC | 0.714 |
